Assay results: PubChem BioAssay (NCI)
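Protocol summary: plate cells (96-well), add compound at 5 concentrations, incubate 48 h, interpolate endpoints linearly. At the GI50, growth is halved. TGI marks complete inhibition of growth.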

System: NCI-H322M lung
Assay: inhibition of tumour cell growth, NCI panel, 48 h

Structure (SMILES) | GI50 | TGI
COc1ccc2c(c1)c(-c1cc3nc(-c4cn(C)c5ncccc45)cc(N)n3n1)cn2C | 2.92 µM | 13.2 µM
COP(=O)(CC(F)(F)C(F)(F)F)OC | 16.6 µM | 33.1 µM
Cn1cc(-c2cc3nc(-c4c[nH]c5ccc(Br)cc45)cc(N)n3n2)c2ccccc21 | 1.36 µM | 2.96 µM
